# In all, about 110,000 compounds went through this assay and about 230 (0.21%) showed an effect of 50% or more. This is one part of the list.
# Biological target: DPAP1 (Plasmodium falciparum, UniProt Q8IIJ9)
# Test: primary screen, percent inhibition; read by cleavage of a fluorogenic dipeptide substrate; higher = more effect of the substance
# Design: species or system P. falciparum D10 trophozoite lysates; single well
# 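Further: 30 min substrate incubation versus DMSO and 10 µM JCP410 controls.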
# Sequence of DPAP1 (Q8IIJ9 whole entry, looked up): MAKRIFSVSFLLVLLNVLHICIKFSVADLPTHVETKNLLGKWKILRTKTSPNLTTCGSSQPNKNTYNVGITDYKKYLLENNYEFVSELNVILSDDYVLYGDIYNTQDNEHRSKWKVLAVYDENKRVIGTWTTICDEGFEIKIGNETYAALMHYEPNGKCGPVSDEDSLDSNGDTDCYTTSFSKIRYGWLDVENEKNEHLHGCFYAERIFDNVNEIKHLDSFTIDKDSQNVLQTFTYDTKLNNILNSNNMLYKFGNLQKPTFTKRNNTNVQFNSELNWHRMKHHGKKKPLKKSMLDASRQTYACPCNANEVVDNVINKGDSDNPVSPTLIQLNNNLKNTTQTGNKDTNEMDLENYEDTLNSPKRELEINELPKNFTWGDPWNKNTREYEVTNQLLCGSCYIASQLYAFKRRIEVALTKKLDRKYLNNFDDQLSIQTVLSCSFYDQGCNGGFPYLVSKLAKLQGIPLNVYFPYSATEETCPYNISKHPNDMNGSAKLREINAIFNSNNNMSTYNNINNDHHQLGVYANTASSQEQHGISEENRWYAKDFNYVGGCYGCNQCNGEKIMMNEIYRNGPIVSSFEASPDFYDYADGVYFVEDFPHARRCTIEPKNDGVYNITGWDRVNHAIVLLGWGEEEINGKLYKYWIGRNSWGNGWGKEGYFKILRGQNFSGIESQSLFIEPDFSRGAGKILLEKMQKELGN
row,Structure (SMILES),% Inhibition @ 10 uM
1,COCc1cc(C)nc(SCC(=O)Nc2ccc(Cl)c(Cl)c2)c1C#N,-1.06%
2,Cc1ccc(-c2nn3c(-c4ccncc4)nnc3s2)cc1C,19%
3,Cc1oc(-c2ccc(Cl)cc2)nc1CS(=O)CC(=O)NCCC1=CCCCC1 (stereo not drawn),-2.85%
4,CC(C(=O)N1CCN(C)CC1)N1C(=O)c2ccccc2C1=O (stereo not drawn),-2.75%
5,CC(C)(C)c1[nH]nc2c1C(c1cccs1)C(C#N)=C(N)O2 (stereo not drawn),2.67%
6,O=C(O)CCn1c2c(c3ccccc31)CCCC2,-0.744%
7,C=CCSc1ncccc1C(=O)NCc1ccc(C)cc1,2.79%
8,O=C(c1cccs1)N1CCc2ccccc21,1.83%
9,O=C(NCc1ccccc1)c1ccc(CSCc2ccc(Cl)cc2)o1,3.66%
10,N#C/C(=C\c1ccccc1Cl)C(N)=O,-1.25%
11,Nc1cc(N)nc(SCC(=O)NCc2ccccc2)n1,3.72%
12,Cn1c(=O)c2sccc2n2c(CCC(=O)NCCc3c[nH]c4ccccc34)nnc12,-3.13%
13,CC(C)c1ncc(C(O)c2ccccc2)n1C (stereo not drawn),3.15%
14,CCOc1ccc(NC2=C(Cl)C(=O)N(c3ccc(OC)cc3)C2=O)cc1,-5.48%
15,COc1ccc(/C=C(\NC(=O)c2ccccc2)C(=O)NC(C)(C)CO)cc1,0.76%
16,COc1ccc(-c2cn3ccc4ccccc4c3n2)cc1OC,-7.02%
17,Cc1ccc(OCc2nc3cc(Br)cnc3[nH]2)c(Cl)c1,-8.42%
18,CN(c1ccc(C(=O)NC(C)(C)C)cc1)S(C)(=O)=O,12.4%
19,C=C(C)CN(CC)Cc1ccc([N+](=O)[O-])o1,-0.603%
20,CCCc1[nH]nc2c1C(c1ccc(C)cc1)C(C#N)=C(N)O2 (stereo not drawn),0.76%
21,CC(=O)N1c2ccc(NC(=O)C(F)(F)F)cc2C(C)(c2ccccc2)CC1(C)C (stereo not drawn),16.3%
22,NS(=O)(=O)c1ccc(CCNC(=O)CSc2ncnc3c2sc2ccccc23)cc1,-2.14%

row,Structure (SMILES),% Inhibition @ 10 uM
1,O=C(CSCC(=O)Nc1ccc2ccccc2c1)NCc1ccccc1,-5.07%
2,O=C(Nc1cccc(Cl)c1)NC1CCCC1,-6.21%
3,O=C(N[C@H](/C=C/S(=O)(=O)c1ccccc1)CCc1ccccc1)C(CCS(=O)(=O)c1ccccc1)NC(=O)N1CCOCC1 (stereo partly drawn),-0.214%
4,CC(=O)c1c(C)oc2ccc(N(C(=O)c3ccccc3)S(=O)(=O)c3ccc(F)cc3)cc12,-14.4%
5,CCC(C(=O)Nc1nc(C)cs1)c1ccccc1 (stereo not drawn),-9.85%
6,Cc1cnc(NC(=O)CSc2nc(O)c3ccccc3n2)s1,3.53%
7,Cn1nnnc1SCCCNCc1cc(Br)ccc1OCc1ccc(F)cc1,-6.6%
8,O=CN1CCN(Cc2c(F)cccc2F)CC1,-3.5%
9,CC(C)CNS(=O)(=O)c1ccc(CCC(N)=O)cc1,2.95%
10,Cc1ccc2c(N)c(C(=O)c3ccc(Cl)cc3)sc2n1,-3.13%
11,CC(=O)N1c2ccccc2N=C2CC(C)(C)CC(O)=C2C1c1c(F)cccc1Cl (stereo not drawn),-5.07%
12,CN1CCN(C(=O)c2cc3nc(-c4ccc(Cl)c(Cl)c4)cc(C(F)(F)F)n3n2)CC1,-3.52%
13,CN(CCc1ccccn1)Cc1ccc(-c2ccccc2)cc1,4.03%
14,Cn1c(=N)n(CCOc2ccccc2)c2ccccc21,0.132%
15,CCN1CCc2c(sc3nc(SC)nc(N)c23)C1,-7.19%
16,COc1ccc(NC(=O)C2=C(C)NC(=O)NC2c2ccc(Cl)cc2)cc1 (stereo not drawn),4.03%
17,Cc1ccccc1S(=O)(=O)Cc1ccc(C(=O)NCCCN2CCC(C)CC2)o1,-4.96%
18,COc1ccc(F)cc1S(=O)(=O)N1CCN(C(=O)c2ccco2)CC1,1.76%
19,CCC(CC)C(=O)Nc1ccc(C(=O)Nc2cc(C)on2)cc1,0.331%
20,CC1=NC(C)(C)C(C)c2ccc3ccccc3c21 (stereo not drawn),-2.89%
21,Clc1cccc(N2CCN(Cc3cccc(Cl)c3Cl)CC2)c1,-6.36%
22,CN1C(=O)C2(OCC(C)(c3ccccc3)CO2)c2ccccc21 (stereo not drawn),-0.725%

row,Structure (SMILES),% Inhibition @ 10 uM
1,COCC(=O)n1nc(-c2cccnc2)nc1NCc1ccc(OC)cc1,-2.92%
2,O=C1OC2(C(=O)c3ccccc3C2=O)C(C(=O)c2ccc(F)cc2)=C1O,-5.14%
3,Cc1sc(NC(=O)CN2CCOCC2)c(C(=O)c2ccccc2)c1C,-3.64%
4,CCCCNC(=O)C1CCC(=O)N1CCc1ccccc1 (stereo not drawn),4.81%
5,COC(=O)c1c(NC(C)=O)c2c(C)c(C)sc2n1Cc1cccc(OC)c1,3.3%
6,COc1ccc(CN2CCN(c3ccc(F)cc3)CC2)cc1OC,-1.77%
7,COCCCNc1oc(/C=C/c2ccc(F)cc2)nc1C#N,-8.25%
8,N#Cc1c(NC(=O)CSc2nc(N)cc(O)n2)sc2c1CCCC2,-0.941%
9,Cc1[nH]c2ccccc2c1C(=O)/C=C/c1ccccc1F,1.17%
10,COCc1cc(C)nc(SCC(=O)N(c2ccccc2)c2ccccc2)c1C#N,-8.36%
11,CCC(C)Nc1nc(C)nc2c1sc1nc3c(cc12)COC(C)(C)C3 (stereo not drawn),1.84%
12,COc1ccc(C(=O)C2=C(O)C(=O)N(CCCn3ccnc3)C2c2ccc(Br)cc2)cc1 (stereo not drawn),-3.45%
13,Cc1ccc(-c2cc(C(=O)NCC3CCCO3)c3ccccc3n2)c(C)c1 (stereo not drawn),-1.41%
14,NC(=O)CSc1nnnn1CC(CC(=O)O)c1ccccc1 (stereo not drawn),-0.0735%
15,CCn1c(C(=O)O)c(CNCc2cc(Br)ccc2OC)c2ccc(C)cc21,-0.397%
16,Cc1nc2c(Cl)cccc2c(O)c1CN(C)Cc1ccccc1,-0.577%
17,COc1ccc2c(Sc3ccccc3)c(C(=O)NC(C)C)[nH]c2c1,-6.64%
18,COC(=O)c1c(NC(=O)c2cccnc2Cl)sc(C(=O)N(C)C)c1C,5.52%
19,Cc1ccccc1OCc1nc(C#N)c(NCc2ccc(F)cc2)o1,3.62%
20,COc1ccc(/C=C2\N=C(c3ccccc3Cl)OC2=O)c(OC)c1OC,3.74%
21,OCCN(Cc1ccccc1)Cc1ccc(Cl)c(Cl)c1,1.08%
22,Cc1cc(C)n2ncc(-c3ccccc3)c2n1,-4.67%

# From PMC6919601, “Identification of Plasmodium dipeptidyl aminopeptidase allosteric inhibitors by high throughput screening” (PLoS ONE, 2019)
